Source: PubChem BioAssay AID540317 (National Center for Advancing Translational Sciences (NCATS), 2011)
Several values for one entry are separate records, joined by “and”; a condition that tells them apart may be missing. Equal values may be shown once. The whole screen tested about 390,000 compounds, of which about 2,200 (0.56%) were called active. This list was built around the results that the source calls inconclusive (neither active nor inactive); the mix of calls is not that of the screen. Calls follow the shape of the dose curve; as a rule, active = well fitted inhibition curve with a large enough effect; inconclusive = small, poorly fitted or top-dose-only effect; inactive = no such curve, though single readings can be large or run the other way. Potencies of inconclusive entries are doubtful fits and often do not repeat.

Molecular target: Chromobox protein homolog 1 (Homo sapiens) (UniProt P83916)
UniProt P83916, sequence (P83916 whole entry, looked up): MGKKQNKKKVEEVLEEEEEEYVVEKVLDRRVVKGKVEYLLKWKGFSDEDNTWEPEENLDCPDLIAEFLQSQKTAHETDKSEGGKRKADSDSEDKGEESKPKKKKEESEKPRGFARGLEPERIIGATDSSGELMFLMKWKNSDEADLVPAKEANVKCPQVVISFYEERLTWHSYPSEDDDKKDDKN
Assay: HTS for Inhibitors of HP1-beta Chromodomain Interactions with Methylated Histone Tails; also: nearly all actives have a fitted effect of over 70% in size
Conditions: AlphaScreen HP1-beta / biotin-H3K9me3 peptide binding; series mostly up to 114 µM; activity change, negative = inhibition: at the top concentration
Summary of the method: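 AlphaScreen: HP1-beta (50 nM) preformed 30 min with biotin-H3(1-18)K9me3 peptide (50 nM) in PBS pH 7.4, 0.01% Tween-20. Compound added for 30 min at RT, then streptavidin donor/nickel chelate acceptor beads (10 ug/mL) for 30 min.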
Potency is read from the fitted curve at half-maximal effect; tags tell the direction and shape of the fitted curve.

| SMILES | activity change, negative = inhibition | Potency |
| --- | --- | --- |
| CC(C)CN1CCC(Oc2cccc(C(=O)NCCc3ccccc3)c2)CC1 | inactive: 26.6% |  |
| COCCNCCCCOc1ccccc1-c1ccccc1 |  | inconclusive: 39.8 µM [inhibitor, partial curve] |
| CCn1c(C)nc2cc(C(=O)N/N=C/c3ccc(O)c(O)c3O)ccc21 |  | active: 8.91 µM |
| CC(C)CCN(CCC(C)C)C/C(O)=C(\C#N)c1nc(-c2ccccc2)cs1 |  | inconclusive: 35.5 µM [inhibitor, partial curve] |
| c1ccc(C[C@H]2CNCCN2CC2(c3ccccc3)CC2)cc1 | inactive: 32% |  |
| Fc1ccc(CNC(=S)Nc2ccccc2Cl)cc1 | inactive: 38.7% |  |
| COCCCNCCOCCOc1ccc(Cl)cc1Br |  | inconclusive: 56.2 µM [inhibitor, single point] |
| O=C(COC(=O)c1cc2c(s1)CCC2)Nc1ccc(F)cc1 |  | active: 39.8 µM |
| Cc1ccc(Nc2nc(-c3ccc(O)cc3O)cs2)nc1 |  | inconclusive: 70.8 µM [inhibitor, partial curve] |
| CCOc1ccc(NC(=O)c2ccccc2OCC(=O)c2ccc(C)cc2)cc1 |  | inconclusive: 28.2 µM [inhibitor, single point] |
| C=CCc1cc(C)ccc1OCC(O)CN1CCN(c2ccccc2)CC1 (stereo not drawn) |  | active: 39.8 µM |
| C=CC[C@H]1C=C[C@@H](C(C(=O)OC)C(=O)OC)CN1C(C)=O |  | inconclusive: 39.8 µM [inhibitor, single point] |
| NC(=O)CC(NC(=O)c1ccc(Br)cc1)c1ccc(N2CCCCCCC2)c([N+](=O)[O-])c1 (stereo not drawn) |  | inconclusive: 20 µM [inhibitor, partial curve, poor fit] |
| O=C(COC(=O)c1ccc(F)cc1F)Nc1ncccn1 |  | inconclusive: 50.1 µM [inhibitor, partial curve] |
| CCCC1(C(=O)OC)NC(c2ccco2)C2C(=O)N(C)C(=O)C21 (stereo not drawn) |  | inconclusive: 35.5 µM [inhibitor, single point] |
| CCN(CC)/C(=N\S(=O)(=O)c1ccc(F)cc1)c1ccccc1 | inactive: 28.6% |  |
| O=C(c1cc(-c2ccc(F)cc2)on1)N1CCN(c2ccc(F)cc2)CC1 |  | inconclusive: 44.7 µM [inhibitor, partial curve] |
| CC1CC(=O)NN=C1c1ccc(N)c([N+](=O)[O-])c1 (stereo not drawn) |  | inconclusive: 25.1 µM [inhibitor, single point] |
| Clc1cccc(Cl)c1OCCCCN1CCCCC1 |  | inconclusive: 17.8 µM [inhibitor, partial curve, poor fit] |
| Cc1ccc(Nc2nc3ccc(C(=O)c4ccccc4)cc3n3c(C)nnc23)c(C)c1 | inactive: 29.4% |  |
| O=C(O/N=C\c1ccc(N2CCOCC2)c([N+](=O)[O-])c1)c1ccccc1Cl |  | inconclusive: 50.1 µM [inhibitor, partial curve] |
| COC(=O)c1ccc(/C=N/NC(=O)C2CC(=O)N(c3ccc(F)cc3)C2)cc1 (stereo not drawn) | inactive: 34.4% |  |

| SMILES | activity change, negative = inhibition | Potency |
| --- | --- | --- |
| COc1ccc(CCNC(=O)c2cc3c(=O)n(C)c4ccccc4c3s2)cc1OC | inactive: 28.9% |  |
| CCN(CC)CCNc1ncnc2c1sc1nc(N3CCCC3)c3c(c12)CC(C)(C)OC3 |  | inconclusive: 50.1 µM [inhibitor, partial curve, poor fit] |
| CC([NH2+][O-])C(C)(C)NO (stereo not drawn) |  | inconclusive: 44.7 µM [inhibitor, single point] |
| CCOc1cc(/C=C2\N=C(SCC)SC2=O)cc([N+](=O)[O-])c1OC(C)=O |  | inconclusive: 39.8 µM [inhibitor, partial curve, poor fit] |
| Cc1ccc(OCc2csc(N)n2)cc1 |  | inconclusive: 79.4 µM [inhibitor, single point] |
| Cc1cc(C)c(OCCN2CC(C)OC(C)C2)c(Br)c1 (stereo not drawn) |  | inconclusive: 15.8 µM [inhibitor, partial curve, poor fit] |
| CC(/C=C1\SC(=S)N(NC(=O)c2ccc(O)cc2)C1=O)=C\c1ccccc1 |  | inconclusive: 44.7 µM [inhibitor, partial curve] |
| c1ccc(CN2CCN(CCOCCOc3cccc4ccccc34)CC2)cc1 |  | active: 20 µM |
| C=CCc1cc(Cl)ccc1OCCN(C)C |  | inconclusive: 50.1 µM [inhibitor, partial curve] |
| CC(CS(=O)(=O)c1ccc2c(c1)NC(=O)CS2)C(=O)NCc1ccccc1Cl (stereo not drawn) |  | active: 12.6 µM |
| COc1cccc(C(=O)NC(=S)Nc2nnn(C)n2)c1 |  | inconclusive: 63.1 µM [inhibitor, partial curve, poor fit] |
| COc1ccccc1NS(=O)(=O)c1cc(NC(=O)C(C)C)ccc1N1CCCCC1 |  | inconclusive: 31.6 µM [inhibitor, partial curve] |
| CCC(C)NCCCCOc1ccc(C)cc1[N+](=O)[O-] (stereo not drawn) |  | inconclusive: 56.2 µM [inhibitor, partial curve, poor fit] |
| COc1ccc(C(Nc2ccccn2)c2oc(CO)cc(=O)c2O)cc1 (stereo not drawn) |  | inconclusive: 15.8 µM [inhibitor, partial curve, poor fit] |
| Nc1cc(Nc2ccccc2)c2nonc2c1[N+](=O)[O-] | inactive: 25% |  |
| COc1cc(NC(=O)c2cc([N+](=O)[O-])ccc2N2CCOCC2)ccc1NC(=O)c1ccco1 | inactive: -0.82% |  |
| CCCCc1ccc(N2C(=O)[C@@H]3C(CC(N)=O)NC4(C(=O)Nc5ccc(F)cc54)[C@@H]3C2=O)cc1 (stereo partly drawn) | inactive: 14.8% |  |
| COc1cc2ccccc2cc1C(=O)N(CCN(C)C)c1nc2c(OC)ccc(OC)c2s1 |  | inconclusive: 17.8 µM [inhibitor, full curve] |
| COc1cc(OC)c2c(-c3ccccc3)cc(=O)oc2c1C(CC(=O)N1CCOCC1)c1ccc(N(C)C)cc1 (stereo not drawn) |  | inconclusive: 50.1 µM [inhibitor, partial curve, poor fit] and inconclusive: 22.4 µM [inhibitor, full curve] |
| COc1cc(CN2CCC(Cc3ccccc3)CC2)cc(OC)c1OC |  | inconclusive: 14.1 µM [inhibitor, full curve] |
| C#CCOCCOCCOCCNc1nc(N2CCN(C(=O)CCCCCCCCCCNC(=O)[C@H](CCCCN)n3cc(CCO)nn3)CC2)nc(N2CCN(C(=O)CCCCCCCCCCNC(=O)[C@H](CCCN=C(N)N)n3cc(C[C@@H](C)CC)nn3)CC2)n1 |  | inconclusive: 50.1 µM [inhibitor, partial curve, poor fit] |
